The source gives no read counts; variants with many changes may rest on few reads.
B1: LINE1-mini (parent)
chain: GGCAGAGCUCAACACAGCGUGGCAAAGUGGCUGUGGCUAGACUGCC

Variants of: B1
Test: self-cleavage, relative activity (ratio to wild type); higher = more cleavage; in vitro, sequencing; the parent is a self-cleaving ribozyme

Row | Variant | self-cleavage
1 | AGCAGAGUUCAACACAGCGUGGCAAAGUGGUUGUGGCUAGACUGCC [G1A C8U C31U] | 0.38
2 | AGCAGAGCUCAACACAGCGUGGCUAAGUGACUGAGGCUAGCCUGCC [G1A A24U G30A U34A A41C] | 0.08
3 | AGCGGAGCUCAACACAGCGUGGCAAAGUACCUGUAGCUAGACUGCC [G1A A4G G29A G30C G35A] | 0
4 | AGCAGAGCUUAACACAACGUGGCAAAGUGGCUGUGGCUAGACUGGC [G1A C10U G17A C45G] | 0.05
5 | AGCAGAGCUGAACACAGCGUGGCAAAGUGGCUGUGGUUAGAAUGCC [G1A C10G C37U C42A] | 0.02
6 | AGCAGAGCUCUACACAGCGUGGCAAAGUUCCUGUGGCUAUACUGCC [G1A A11U G29U G30C G40U] | 0.01
7 | AGCGGAGCUCAACACAGUGUGUCAAAGUGCCUGUGGCUAGACUGCA [G1A A4G C18U G22U G30C C46A] | 0.26
8 | AGCAGAGCUCACCACAGUGUGGCAAAGUGGCUGUCGCUAGAUUGCC [G1A A12C C18U G35C C42U] | 0.01
9 | AGUAGAGCUCAACACAGCGUGGCACAGAGGCUGGGGUUAGUCUGCC [G1A C3U A25C U28A U34G C37U A41U] | 0.08
10 | AGCAGAGCUCGACACACCGUGGCUAAGUGUCUGUGGCUAGACUGCC [G1A A11G G17C A24U G30U] | 0.02
11 | AGAGGAGCUCAACACAGCGUGGCAAAGUGGCUGUGGCUAGACUGCC [G1A C3A A4G] | 0.87
12 | AGCAGAGCUCAACACUGGGAGGCAAAGGAGCUGUGGCUAGGGUGCA [G1A A16U C18G U20A U28G G29A A41G C42G C46A] | 0.02
13 | AGCAGCGCUCAACACAGCGUGGCAAAGUGGCUCUGGCUAGACUGCC [G1A A6C G33C] | 0.06
14 | AGCAGUGCUCAACACAGCGUGGCAAAGUGGCUUUGGCUAGACUUAC [G1A A6U G33U G44U C45A] | 0.1
15 | AGCAGCGCUGAACGCAGCGUGGCAAAGUGGCUGUGGCUAGACUGCC [G1A A6C C10G A14G] | 0.04
16 | AGCAGCGCUCAACACAGCGUCGCAAAGUGGCUGUGCCUAGAGUGGC [G1A A6C G21C G36C C42G C45G] | 0.02
17 | AGCUGAGCUCAACACAGCGUGGCAAAGUGGCGGAGGCUAGACUGCC [G1A A4U U32G U34A] | 0.1
18 | AGCGGAACUCAACACAGCGUGGCAAAGUGGCUCUGGCUAGACUGCC [G1A A4G G7A G33C] | 0.28
19 | AGCAGCGCUCAACACAGCGUGGCAAAGCGGCUGUGGCUAGACUGCC [G1A A6C U28C] | 0.28

Row | Variant | self-cleavage
20 | AGCGGAGCUCAACACAGCGUGGCAAAGUGGCUGUGGCUAGUCUGCC [G1A A4G A41U] | 0.05
21 | AGCGGAGCUCAACUCAGCGUGGCAAAGUGUCUGUGGCUAGACUGCC [G1A A4G A14U G30U] | 0.08
22 | AGUAGAGCUCAACACAGCGUAGCAAAGGGUCCGUGCCUAGACUGCC [G1A C3U G21A U28G G30U U32C G36C] | 0.11
23 | AGCAGUGCUCAACACUGCGUGGCAAAGUGGCUUUGAAUAGACUGCC [G1A A6U A16U G33U G36A C37A] | 0.06
24 | AGGAGAGCUUAACACAGCGUGGCAAACUGGCUGUGGCUAGACUGCC [G1A C3G C10U G27C] | 0.1
25 | AGCAGAGCUCAACUCAGCGUGGCAAAGUGGCUGAGGCUAAACUGCC [G1A A14U U34A G40A] | 0.06
26 | AGCAGAGCUGAACACAGCGUGGCAGAGUGGCUGAGGCUAGACUGAC [G1A C10G A25G U34A C45A] | 0.04
27 | AGCAGAGCUCACCACAGCGUGGCAAAGCGGCUGUGGCUAGACUGCU [G1A A12C U28C C46U] | 0.05
28 | AGCAGAGCUAAACACAGCGUGGCAAUGUGGGUGUGGCUAGACUGCC [G1A C10A A26U C31G] | 0.04
29 | AGCAGAGCUCAGCACAGCGAGGCAAAGUGGCUGUGGCUAGACUGCC [G1A A12G U20A] | 0.05
30 | AGCAGAGCUCUACACAGCGUGGCAAAGUGUCUGUGGCUAGACUGCA [G1A A11U G30U C46A] | 0.13
31 | AGCAGGGCUGAACACAGCGUGGCAAAGUGGCCGUUGCUAGACUGCC [G1A A6G C10G U32C G35U] | 0
32 | AGCAGAGCUAAACUCAGCGUGGCAAAGUGGCUGUGGCUAGACUGCA [G1A C10A A14U C46A] | 0.08
33 | AGCAGAGCUAAACACUGCGUCGCAAAGUGGCUGUGGCUAGACUGCA [G1A C10A A16U G21C C46A] | 0.06
34 | AGGAGAGCUUAACACAGCGUGGCAAAGUGGCUGUGGCUAGACUGCC [G1A C3G C10U] | 0.26
35 | AGCAGAGCUCCACACAGCGUGGCAAAGUGGCUGUGGCUAGAUUGCC [G1A A11C C42U] | 0.06
36 | AGCAGAGCUCGACACAGCAUGGCAAAGUGGCUGUGGCUCGGCUGCC [G1A A11G G19A A39C A41G] | 0.11
37 | AGCUGACGUCAACACAGCGUUGCAAAGUGGUUGUGGCUAGACUGCC [G1A A4U G7C C8G G21U C31U] | 0.14
38 | AGCAGAGCUUAACACAGAGUGGCAAAGUGGAUGUGGCUAGACUGCC [G1A C10U C18A C31A] | 0.08

Row | Variant | self-cleavage
39 | AGAAGAGCUCAACCCAGCGUUGCAAAGUGGCUGAGGCUAGACUGCC [G1A C3A A14C G21U U34A] | 0.19
40 | AGCAGGGCUCAACACAGAGUGGCAUAGUGGCUGUGGCUAGACUGCC [G1A A6G C18A A25U] | 0.03
41 | AGCAGAGCUCGACACAGCGUGGCAAAGUGGCUCUGGCUAGACUGCC [G1A A11G G33C] | 0.04
42 | AGCAGAGGUCAACACAGCGUGGCAAAGCGGCUGUGCCUAGACUGCC [G1A C8G U28C G36C] | 0.05
43 | AGCCGAGCACAACACACCGUGGCAAAGUGGCUGUGGCUAGACUGCC [G1A A4C U9A G17C] | 0.07
44 | AGCCGAGCUCAACACAGCGUGGCAAAGUGGCUGUGGCUAGCCUGCC [G1A A4C A41C] | 0.12
45 | AGCGGAGCUCAACACAGCGUGGCAAAGUGGCUAUGGCUAGACUGCC [G1A A4G G33A] | 0.04
46 | AGCAGAGUUCAACACAGCGUGGCAAAGUGGCUGUGGCAAGGCUGCC [G1A C8U U38A A41G] | 0.64
47 | AGCAGAGCUCGACACAGCGUGGCAAAAUGGCUGUGGCUAGACUGGC [G1A A11G G27A C45G] | 0.02
48 | AGCAGAGCUCAUCACAGCGUGGCAAAGUGGAUGUGGCUAGACUGCC [G1A A12U C31A] | 0.08
49 | AGCAGAGCUUAACACAGCGUGGCAAAGUGGCUGUGGCUAGACUGGC [G1A C10U C45G] | 0.37
50 | AGCAGAGCUCAACGCAGCGUGGCACAGUGGCUGUGGCUAGACUGCC [G1A A14G A25C] | 0.2
51 | AGCAGAGCUCAACCCAGCGUGGCAAAGUGGCUGUGGAUAGACCACC [G1A A14C C37A U43C G44A] | 0.21
52 | AGCAGAGCUAAACACAGCGUGGCAAAGUGCCUGUGGCUAGAGUGCC [G1A C10A G30C C42G] | 0.03
53 | AGCAGAGCUCAACACGGCGUGGCAAAGUGGGUGUGGCUGGACUGCG [G1A A16G C31G A39G C46G] | 0.01
54 | AGCUGAUCUCAACACAGUGUGGCAAAGUGGCUGUGGCUAGACUGCC [G1A A4U G7U C18U] | 0.51
55 | AGCAGAGCUAAAGACAGCGUGGCCUAGUGGCUGUGGCUAGACUGCC [G1A C10A C13G A24C A25U] | 0.06
56 | AGCAGAGCUCAACACAGCGUGGCAAGGUCGCUGUGGCUAGACUGCC [G1A A26G G29C] | 0.18

From the RNAGym collection of RNA variant scans (doi:10.7554/elife.90254)
